In all, about 33,000 sequences were measured (“E-score (-0.5 to 0.5)”: median about -0.035, highest 2% from about 0.34 on). This is one part of the list.
molecular target: T1, Mot3 (UniProt P54785); experiment: PBM E-score (8-mer binding enrichment) (E-score (-0.5 to 0.5)); higher = stronger / more preferred TF binding; most listed sequences are background and not binding sites; details: protein concentration: 200 nM; construct: GST-full length
T1 sequence: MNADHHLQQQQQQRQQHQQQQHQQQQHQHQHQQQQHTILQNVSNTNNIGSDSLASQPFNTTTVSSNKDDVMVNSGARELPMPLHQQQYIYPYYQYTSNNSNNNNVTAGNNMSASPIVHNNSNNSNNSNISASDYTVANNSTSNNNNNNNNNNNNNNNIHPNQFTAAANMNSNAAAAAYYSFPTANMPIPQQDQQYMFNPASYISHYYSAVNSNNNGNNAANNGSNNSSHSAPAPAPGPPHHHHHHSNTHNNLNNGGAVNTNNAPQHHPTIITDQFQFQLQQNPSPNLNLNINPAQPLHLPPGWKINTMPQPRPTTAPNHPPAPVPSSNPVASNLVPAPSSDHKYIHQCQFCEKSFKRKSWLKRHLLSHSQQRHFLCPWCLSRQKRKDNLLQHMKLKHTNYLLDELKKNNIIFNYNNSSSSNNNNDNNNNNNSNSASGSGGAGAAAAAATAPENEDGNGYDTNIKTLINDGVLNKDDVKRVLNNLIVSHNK
Method: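 Universal 'all 10-mer' protein binding microarrays (Agilent AMADID 015681) probed with GST-tagged S. cerevisiae TFs (full-length or DBD) made by in vitro transcription/translation (PURExpress), about 100-200 nM. Bound TF was detected with fluorescent anti-GST. Each ungapped 8-mer (which stands for itself and its reverse complement) is scored by the PBM enrichment score (E-score), a modified Wilcoxon-Mann-Whitney statistic from -0.5 to +0.5, computed with the Universal PBM Analysis Suite. Scale: above 0.35 generally sequence-specific binding.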

Sequence	PBM E-score
ATCGTCAC	0.0854
ACATTTTC	0.145
GACCTCCC	-0.32
CCAGAAGG	0.2
GTGCTTAA	0.0807
ACGGACAT	-0.0901
CACAAAGG	0.15
AGCAGACA	-0.0512
CCCACTGA	-0.217
CCCAGTCC	-0.157
CCACAGCC	-0.109
AGGACTGG	-0.196
CCTCCTAG	-0.122
CTCCAGAG	-0.144
GTGACATA	0.237
GGTCGCGA	-0.151
AGGGTGCC	0.284
ATAGTCAA	0.0128
GGGTGTAA	0.223
ACCAAGGG	-0.00291
AATTCAAA	0.0432
ACACGAAT	0.222

Sequence	PBM E-score
GTATCGGA	0.00015
CAGCTCGG	-0.255
AATATGAA	-0.00664
CTGCCTGA	0.223
ACTACCGA	-0.157
ATTCCGCG	-0.113
AACCTAAT	0.109
AAGCCAGA	-0.0288
TAGATGGA	-0.0453
GAGTCCGC	-0.315
ATCACAAT	0.0624
CACGGAAA	0.204
ACGTGACG	0.0494
CTAGCAAC	0.109
TCCACGCA	-0.063
GTAGAATA	0.234
GGACGCAC	-0.242
CTTGAATA	0.0439
GGAGGAGA	-0.167
CAAATTGC	0.00715
ACGCTGCT	0.0819
GAACTAGA	0.052

Sequence	PBM E-score
CCTCCCAA	-0.153
CTCCGATA	-0.16
AGTTGTAA	0.211
ATTTTATA	0.121
ACTAGCAC	-0.244
CCGGTGAC	-0.211
ATGGTGAG	-0.0265
GACCAGTC	-0.175
AGGACAGA	-0.0828
AGCAATGG	-0.204
GCTTCTAC	-0.0179
TTGTCAAA	0.108
GTACTCAC	-0.102
CCTTCAAA	0.115
ATTCCCAG	-0.0785
AAGTAAAG	0.131
TAGGTAGA	0.0477
ATATGCTA	-0.0819
GCAAATAA	0.104
CGTCTCTA	-0.0824
AACCTTCG	0.0434
AACCGTCA	-0.113

Sequence	PBM E-score
CTGGCGAC	-0.215
GGGTCCGA	-0.135
TAACGGTA	-0.055
TACTTTGA	0.0853
CCTGATAA	0.138
CCCCTAAA	-0.27
GGATCGCA	-0.0912
CCAGGAGA	-0.238
CATGGAGA	0.0809
GTATTAAA	0.222
CAGGCTGC	-0.05
CCTAACAA	0.249
CATCGCTC	-0.304
CGGAAAGC	-0.151
CATAGATA	0.0267
TTCGCGAA	0.24
TCGATACA	0.111
ATCTGCCC	-0.0711
AAACTTAG	0.0943
GTTTTGAA	0.24

Source: the supplement of paper PMC3334620
